Measurements from publication PMC12136788.
This is one part of the list.

B1: chr11:108005878:108005879:+_ENSG00000075239_ENST00000265838|hu_hu|FALSE|FALSE (ssRNA)
RNA: GGGAGUUCUACAGUCCGACGAUCCAUGAUGGCUUUCAUUCCUGAAGCACAAACUUUGUUUAUGGUGGUACAUGGAGUAGAAAUAGGUAAGCCUGCACCCAAUACUGCCUGCCUUGUAGGAGCUUGUCCUUCACCUCCUUGUAGCAACAGAGGAUUGAGCAUCA
B2: chr12:57883053:57883054:+_ENSG00000166986_ENST00000262027|hu_mus|motif|central (ssRNA)
RNA: GGGAGUUCUACAGUCCGACGAUCGGUGAGAUCAUCUUGUUCCCAGCCACAUAACAGAAAAAAAUAUCGGCAGAUUGCACGGGCAGAGAAGAGGUAGUUGCCACUAUCCAGCUGCAAGACAGGGACCUUAGGCCGGGUAAGGAACAACAGAGGAUUGAGCAUCA
B3: chr1:66461122:66461123:+_ENSMUSG00000015222_ENSMUST00000114013|mus_hu|FALSE|FALSE (ssRNA)
RNA: GGGAGUUCUACAGUCCGACGAUCAGGUGAUGGCAAUGGGACUGUGUACUUAUUGAACACACAGUAGCCCAGGUCUUCGAGCUGACUGUCCGUUUUUACAAUGACAUGGUUUUCAUCAGUUACCGGGGGCAAGCCAGUACGACUCAACAGAGGAUUGAGCAUCA
B4: chr2:86371542:86371543:-_ENSG00000132305_ENST00000449247|hu_hu|FALSE|FALSE (ssRNA)
RNA: GGGAGUUCUACAGUCCGACGAUCCCAGUCCUGUGCCACUCGUCUGGAUUCCCCCUUCAGCUGAUUGACAAACUUUGCUGCUAGCUCCAGAUCACCAUGCUCAAUGCAAUAGGAAGCAUAUGACAGUAAUUUAAAUGUGUUUAUCAACAGAGGAUUGAGCAUCA
B5: chr5:33455709:33455710:+_ENSG00000113407_ENST00000502553|hu_hu|motif|central (ssRNA)
RNA: GGGAGUUCUACAGUCCGACGAUCAGCUUGUUUUUCUUUAAUGAUUUUCUUACACAAAGCCUCCAGAGAAGAGAAAUCAUUGCGGGACACACCCCCUUCUUCGAGGUACAUGUCAUAAUAGAAUCCAUUUUCUAUUGGCGGACCCAACAGAGGAUUGAGCAUCA
B6: chr1:163112212:163112213:-_ENSG00000143248_ENST00000313961|hu_hu|hu_hu_hu_mus_False|68_108 (ssRNA)
RNA: GGGAGUUCUACAGUCCGACGAUCUUUAUUUAUCCAGAAGAGUGAGUUACAUACUAGGCAAAGUAUUGAAUACAAAAAUCAGGAAACAAACACUAUUGGUCCAGAAUUUAAAACUUUAUGAGCGAAGUGCUGGCACAGGACUUACAACAGAGGAUUGAGCAUCA
B7: chr7:56126341:56126342:+_ENSG00000146731_ENST00000540286|hu_mus|hu_hu_hu_mus_True|98_98 (ssRNA)
RNA: GGGAGUUCUACAGUCCGACGAUCCAUGUUUCUCCUCUUAGCUCUGCGCAGAGCUACGAUCCCUUCUUUCGCAAGGGCAUCUAAGGAAAAGGGGUCAAUCCCCUUUUGAUUAAUAACGACAAAUCCUUUAUCUGAGUCACCACACAACAGAGGAUUGAGCAUCA
B8: chr1:45984709:45984710:-_ENSG00000117450_ENST00000319248|hu_mus|FALSE|FALSE (ssRNA)
RNA: GGGAGUUCUACAGUCCGACGAUCUGCAUUUCCUGAAGACAUCUUGCUAUCAGCAGGGUCGAGCCACAGGUCUCACAAACAGAAAGAGCCGUGAGAACGCAGGAAGAGGUCGCCCGACAGCGCGCGCGGGGAGCUGCUUUUAUACAACAGAGGAUUGAGCAUCA
B9: chr7:129114946:129114947:-_ENSMUSG00000034951_ENSMUST00000057576|mus_mus|motif|central (ssRNA)
RNA: GGGAGUUCUACAGUCCGACGAUCAUCCACAAGCAUCAUCAAGCUGUUCUGCAUGCCGGUCAGCUUUGCAGAAAUCACAGCGGUGUCUUGAGUUUUGAAGGUCUCCUCAAUAUCAGCACUCAGCGUGCUCCACUUGUCAGCUUCCAACAGAGGAUUGAGCAUCA
B10: chr8:73998637:73998638:+_ENSMUSG00000074247_ENSMUST00000124745|mus_mus|motif|central (ssRNA)
RNA: GGGAGUUCUACAGUCCGACGAUCGCUUGACACGAGUUACAGCAUAAAUAAAAACUCAAGGAAAAUAAAUACAUGGAUCCGGUGCGGUUGGAGGGCGCGGGCUGGAUGUAGGAGGCGGGCCGCGCUUACACACGCGGGUGGGAGCAACAGAGGAUUGAGCAUCA
B11: chr2:44571066:44571067:-_ENSG00000138078_ENST00000409411|hu_mus|FALSE|FALSE (ssRNA)
RNA: GGGAGUUCUACAGUCCGACGAUCAACUCUGAUGCAAUCAAUGAAAGGCUGAUCCAAUUUAAGUUCUUCCAGGUUGAAUAAAACUUCAUAAUUAUCACUGUCAGCUUCUUCGUCUUUGGAACGAACCAAGCAGCAACCUUCUUGCAACAGAGGAUUGAGCAUCA
B12: chr4:95690885:95690886:+_ENSMUSG00000028572_ENSMUST00000156910|mus_mus|mus_mus_mus_hu_False|58_58 (ssRNA)
RNA: GGGAGUUCUACAGUCCGACGAUCUUUAGAAAAUGUUAAAUACCAUGCUAAAAUAUUUUCAAAGGCUUAUUUUAUUUUACUAAAAGACACAGGCAAGCAGACACUACAAGAAUAUAUGAAAAUGAAACUCAACAAUAUAACUGUCAACAGAGGAUUGAGCAUCA
B13: chr2:44428564:44428565:+_ENSG00000138032_ENST00000378551|hu_mus|motif|central (ssRNA)
RNA: GGGAGUUCUACAGUCCGACGAUCGAGAGCAGAGCCUGAUUUGUCAGCUGCCCUGAAGUCUUCAUUGGUGGUGAUGUGUUCGGAUAGAUGUGUUGAACAGUAAUUUGCCACUCGGGAUCCAGCAUGACCGUCAUAAACUGCAAACAACAGAGGAUUGAGCAUCA
B14: chr5:144470944:144470945:+_ENSMUSG00000018001_ENSMUST00000116456|mus_mus|motif|central (ssRNA)
RNA: GGGAGUUCUACAGUCCGACGAUCAUAUACAUUGUAUAACACUGAAGAAAUUAAUACAUAUGUACAUUAUUUACAUAGUAACGGUUUAUUGUAAAUAGAAAUGUUUUCUAAGAUAAAAAGAAAUCACAACAUGGUUUCUGGUCUCAACAGAGGAUUGAGCAUCA
B15: chr5:71494580:71494581:+_ENSG00000131711_ENST00000296755|hu_hu|FALSE|FALSE (ssRNA)
RNA: GGGAGUUCUACAGUCCGACGAUCAGAGGAACUGUGGCAAGUUGCUGUUUUCUCUUUGACUGCAGAGGUAGAAUCUGAAAAAGUAGGUGAAUAUAAAGGAGAGGACUCUCGUGGGGUGAGUGGAGAGAUAUCAGAUUUUGGAGACAACAGAGGAUUGAGCAUCA
B16: chr12:48362563:48362564:+_ENSG00000134291_ENST00000256686|hu_hu|hu_hu_hu_mus_False|18_88 (ssRNA)
RNA: GGGAGUUCUACAGUCCGACGAUCUCCGUCAAGCCCUUCGAUAGACCCAUAGACUCUAAACUGUAAUCACUUUGUAUGGGGAAGGAAAAGAAACGCCAAAAACUUUCCAAAAAGCGGUUCAAAAAGCAGGCGGGAGGGGGAGGUCAACAGAGGAUUGAGCAUCA
B17: 46801812_46804828_2414_CDS_ENSG00000175216_ENST00000415402|human|control|control (ssRNA)
RNA: GGGAGUUCUACAGUCCGACGAUCGGGACCAACAUACAGAUACAUCACGCCAAGCAGGGUUAUGGCAGCAGUCCUCACAGCUGGGUUUGUUGCAGCAAGAGCUGUCUUCACAUUGCUAAUGAAAGCUUUGACAUUCAACCCAGACAACAGAGGAUUGAGCAUCA
B18: 39339438_39339558_279_5pUTR_ENSG00000214114_ENST00000397572|human|control|control (ssRNA)
RNA: GGGAGUUCUACAGUCCGACGAUCUUGCAGUAGCCGAGGAGGGUGUUUAGAAUCAUAUAUUUUGGCUUCAGCUUUUAUCUUUGGAGUCUCCUUGAGUCGUGGCUGACUUGAUGUGGGCCUCUGGAGGAUGAGCAGUAACGAGCUCAACAGAGGAUUGAGCAUCA
B19: 40831691_40831811_1298_3pUTR_ENSG00000145592_ENST00000274242|human|control|control (ssRNA)
RNA: GGGAGUUCUACAGUCCGACGAUCUUCCAGCAAUUCAUGUUCCCUUCAACUGCCCCUGCCCUCUCACUCAGCAGUCCAGUUGACUUUGUCCCUUCAUUUUAAAAAAACAAAAAAAACCCCCAACCCUGUCAAUAAACCACGAAACAACAGAGGAUUGAGCAUCA
B20: chr4:95690885:95690886:+_ENSMUSG00000028572_ENSMUST00000156910|mus_mus|mus_mus_mus_hu_False|88_88 (ssRNA)
RNA: GGGAGUUCUACAGUCCGACGAUCUUUAGAAAAUGUUAAAUACCAUGAGCAUGCUAAUUCAAAGGCUUAUUUUAUUUUACCAGAAGUCACAGGCAAGCAGACACUACAAGAAUAUAUGAAAAUGAAACUCAACAAUAUAACUGUCAACAGAGGAUUGAGCAUCA
B21: chr5:132424205:132424206:+_ENSG00000170606_ENST00000304858|hu_hu|motif|central (ssRNA)
RNA: GGGAGUUCUACAGUCCGACGAUCGAUGGCACACUGCAAUGCACAGCCUCGAGUGACAGCUUCAUCAGCAUUUAAUGUUGUACGGAGUUCUUUACCGAAAAAUUUGCUGAUCUUCUCUUUUACCGCAGGGAUUCGUGUAGCACCCAACAGAGGAUUGAGCAUCA
B22: chr16:17389515:17389516:-_ENSMUSG00000041720_ENSMUST00000036161|mus_hu|motif|central (ssRNA)
RNA: GGGAGUUCUACAGUCCGACGAUCUCAGAUUCAAUCAGAAAAAUGCCCAAUGCAAUCACUGCAUCUCUCCGUCUUUCAUCGGACUGGAAGAUCCCAUGGAAAUCCACUGGACACAUGCAAAGAAGCUUUUGGACCUUCUCCAAGCAACAGAGGAUUGAGCAUCA

Target: T1, UNK ZnF1-3 (human, UniProt Q9C0B0 31-174)
T1 sequence: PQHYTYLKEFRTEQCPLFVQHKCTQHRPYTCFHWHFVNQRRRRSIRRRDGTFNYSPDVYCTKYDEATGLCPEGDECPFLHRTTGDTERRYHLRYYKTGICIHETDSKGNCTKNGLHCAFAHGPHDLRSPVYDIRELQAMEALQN
Assay: nsRBNS (natural sequence RNA bind-n-seq); RBNS binding buffer (assumed for nsRBNS): 25 mM Tris pH 7.5, 150 mM KCl, 3 mM MgCl2, 0.01% Triton X-100, 500 ug/ml BSA, 20 U/ml SUPERase-In, 4 C; UNK is unkempt and MSI1 is Musashi-1; names of the RNAs are library labels; protein concentration not given here; high values mean tight binding

Binder	binding signal [enrichment R]
B1	0.812
B2	2.18
B3	0.586
B4	1.23
B5	1.81
B6	1.69
B7	0.783
B8	1.82
B9	0.961
B10	2.37
B11	1.04
B12	1.59
B13	1.1
B14	0.814
B15	2.31
B16	2.4
B17	0.868
B18	1.41
B19	1.93
B20	2.17
B21	1.26
B22	0.625
